Source: the supplement of paper PMC12217912
Some of the results follow. Sequences were assembled here from the parent chain. Values near 0.05 are background.

B1: TEV protease; numbered along this chain (parent)
chain: MGESLFKGPRDYNPISSSICHLTNESDGHTTSLYGIGFGPFIITNKHLFRRNNGTLVVQSLHGVFKVKDTTTLQQHLVDGRDMIIIRMPKDFPPFPQKLKFREPQREERICLVTTNFQTKSMSSMVSDTSCTFPSGDGIFWKHWIQTKDGQCGSPLVSTRDGFIVGIHSASNFTNTNNYFTSVPKNFMELLTNQEAQQWVSGWRLNADSVLWGGHKVFMVKPEEPFQPVKEATQL

Variants of: B1
Assay: raw area under fraction-flipped curve 0-4 h after induction (AUC4h, not background-subtracted), DNA-recorder readout of cleavage of the substrate (dimensionless); higher = more cleavage of the substrate by the protease variant
Conditions: temperature: 34 °C; time window: 0-4 h after rhamnose induction
Method: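 In vivo DNA recorder in E. coli TOP10(DE3) ΔrhaA at 34 °C. Each TEVp single-site mutant (parent TEVp 0) is paired with a single-site variant of the 7-mer TEVs (canonical ENLYFQ|S). The substrate sits between flexible linkers in a Bxb1-sfGFP-TEVs-SsrA fusion, so cleavage stabilises Bxb1 and speeds flipping of a recombination array, read by NGS. The value is the raw area under the fraction-flipped curve over 0-4 h after rhamnose induction (AUC4h), with ≥20 reads per time point. It is not background-subtracted; inactive controls average about 0.047.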
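Note: Bxb1 expression induced with 0.2% (w/v) L-rhamnose at OD600 near 0.5, cultures sampled hourly, flipped fraction per protease–substrate barcode pair counted by paired-end Illumina sequencing.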

Row | Variant | area with substrate ANLYFQS | area with substrate CNLYFQS | area with substrate DNLYFQS | area with substrate GNLYFQS | area with substrate HNLYFQS | area with substrate LNLYFQS | area with substrate MNLYFQS | area with substrate PNLYFQS | area with substrate RNLYFQS | area with substrate TNLYFQS | area with substrate VNLYFQS | area with substrate WNLYFQS | area with substrate YNLYFQS | area with substrate FNLYFQS | area with substrate INLYFQS | area with substrate NNLYFQS | area with substrate SNLYFQS | area with substrate KNLYFQS | area with substrate QNLYFQS
1 | MGESLFKGPRDYNPISSSICHLTNESDGHTTSLYGIGFGPFIITNKHLFRRNNGTLVVQSLHGVFKVKDTTTLQQHLVDGRDMIIIRMPKDFPPFPQKLKFREPQRETRICLVTTNFQTKSMSSMVSDTSCTFPSGDGIFWKHWIQTKDGQCGSPLVSTRDGFIVGIHSASNFTNTNNYFTSVPKNFMELLTNQEAQQWVSGWRLNADSVLWGGHKVFMVKPEEPFQPVKEATQL [E108T] | 0.0468 | 0.0606 | 0.0816 | 0.0375 | 0.0609 | 0.0474 | 0.0549 | 0.0471 | 0.0437 | 0.0645 | 0.0724 | 0.049 | 0.047 |  |  |  |  |  | 
2 | MGESLFKGPRDYNPISSSICHLTNESDGHTTSLYGIGFGPFIITNKHLFRRNNGTLVVQSLHGVFKVKDTTTLQQHLVDGRDMIIIRMPKDFPPFPQKLKFREPQREERICLPTTNFQTKSMSSMVSDTSCTFPSGDGIFWKHWIQTKDGQCGSPLVSTRDGFIVGIHSASNFTNTNNYFTSVPKNFMELLTNQEAQQWVSGWRLNADSVLWGGHKVFMVKPEEPFQPVKEATQL [V113P] | 0.0653 | 0.0563 | 0.0479 | 0.073 | 0.0517 | 0.073 | 0.0577 | 0.0615 |  | 0.0628 | 0.0606 | 0.0658 | 0.0468 | 0.0525 | 0.0497 | 0.0326 | 0.0779 |  | 
3 | MGESLFKGPRDYNPISSSICHLTNESDGHTTSLYGIGFGPFIITNKHLFRRNNGTLVVQSLHGVFKVKDTTTLQQHLVDGRDMIIIRMPKDFPPFPQKLKFREPMREERICLVTTNFQTKSMSSMVSDTSCTFPSGDGIFWKHWIQTKDGQCGSPLVSTRDGFIVGIHSASNFTNTNNYFTSVPKNFMELLTNQEAQQWVSGWRLNADSVLWGGHKVFMVKPEEPFQPVKEATQL [Q105M] | 0.0494 | 0.0731 | 0.0818 |  | 0.0664 | 0.0567 | 0.072 | 0.0847 |  |  | 0.0682 | 0.0629 | 0.0654 | 0.074 | 0.0753 | 0.0787 | 0.0463 |  | 
4 | MGESLFKGPRDYNPISSSICHLTNESDGHTTSLYGIGFGPFIITNKHLFRRNNGTLVVQSLHGVFKVKDTTTLQQHLVDGRDMIIIRMPKDFPPFPQKLKFREPQRWERICLVTTNFQTKSMSSMVSDTSCTFPSGDGIFWKHWIQTKDGQCGSPLVSTRDGFIVGIHSASNFTNTNNYFTSVPKNFMELLTNQEAQQWVSGWRLNADSVLWGGHKVFMVKPEEPFQPVKEATQL [E107W] | 0.0623 | 0.0528 | 0.0688 |  | 0.0615 |  | 0.0604 |  |  | 0.0641 |  | 0.0578 |  |  | 0.0609 |  |  | 0.058 | 
5 | MGESLFKGPRDYNPISSSICHLTNESDGHTTSLYGIGFGPFIITNKHLFRRNNGTLVVQSLHGVFKVKDTTTLQQHLVDGRDMIIIRMPKDFPPFPQKLKFREPQRAERICLVTTNFQTKSMSSMVSDTSCTFPSGDGIFWKHWIQTKDGQCGSPLVSTRDGFIVGIHSASNFTNTNNYFTSVPKNFMELLTNQEAQQWVSGWRLNADSVLWGGHKVFMVKPEEPFQPVKEATQL [E107A] | 0.0749 | 0.0551 | 0.167 | 0.0652 | 0.0406 |  |  | 0.0715 |  | 0.0656 | 0.0816 | 0.0685 |  |  |  | 0.0602 | 0.0343 | 0.072 | 
6 | MGESLFKGPRDYNPISSSICHLTNESDGHTTSLYGIGFGPFIITNKHLFRRNNGTLVVQSLHGVFKVKDTTTLQQHLVDGRDMIIIRMPKDFPPFPQKLKFREPQREERILLVTTNFQTKSMSSMVSDTSCTFPSGDGIFWKHWIQTKDGQCGSPLVSTRDGFIVGIHSASNFTNTNNYFTSVPKNFMELLTNQEAQQWVSGWRLNADSVLWGGHKVFMVKPEEPFQPVKEATQL [C111L] | 0.076 | 0.0417 | 0.101 |  | 0.0615 |  | 0.0573 | 0.0622 |  | 0.0644 |  | 0.055 |  |  | 0.067 |  | 0.072 |  | 0.0871
7 | MGESLFKGPRDYNPISSSICHLTNESDGHTTSLYGIGFGPFIITNKHLFRRNNGTLVVQSLHGVFKVKDTTTLQQHLVDGRDMIIIRMPKDFPPFPQKLKFREPQREERIYLVTTNFQTKSMSSMVSDTSCTFPSGDGIFWKHWIQTKDGQCGSPLVSTRDGFIVGIHSASNFTNTNNYFTSVPKNFMELLTNQEAQQWVSGWRLNADSVLWGGHKVFMVKPEEPFQPVKEATQL [C111Y] | 0.0529 | 0.0657 | 0.077 |  | 0.0523 | 0.0707 |  | 0.0669 |  |  |  |  | 0.0348 | 0.0561 |  |  | 0.0706 | 0.0845 | 
8 | MGESLFKGPRDYNPISSSICHLTNESDGHTTSLYGIGFGPFIITNKHLFRRNNGTLVVQSLHGVFKVKDTTTLQQHLVDGRDMIIIRMPKDFPPFPQKLKFREPQREERITLVTTNFQTKSMSSMVSDTSCTFPSGDGIFWKHWIQTKDGQCGSPLVSTRDGFIVGIHSASNFTNTNNYFTSVPKNFMELLTNQEAQQWVSGWRLNADSVLWGGHKVFMVKPEEPFQPVKEATQL [C111T] | 0.0546 | 0.0828 | 0.109 | 0.0716 | 0.0586 |  | 0.0475 | 0.0748 |  | 0.0733 | 0.076 | 0.0602 |  | 0.0676 |  |  | 0.0666 |  | 0.0625
9 | MGESLFKGPRDYNPISSSICHLTNESDGHTTSLYGIGFGPFIITNKHLFRRNNGTLVVQSLHGVFKVKDTTTLQQHLVDGRDMIIIRMPKDFPPFPQKLKFREPQFEERICLVTTNFQTKSMSSMVSDTSCTFPSGDGIFWKHWIQTKDGQCGSPLVSTRDGFIVGIHSASNFTNTNNYFTSVPKNFMELLTNQEAQQWVSGWRLNADSVLWGGHKVFMVKPEEPFQPVKEATQL [R106F] | 0.0738 | 0.0587 | 0.0749 | 0.0652 | 0.0768 | 0.064 | 0.0708 | 0.0624 |  | 0.0635 | 0.0559 | 0.0562 | 0.057 | 0.0727 |  |  | 0.0611 | 0.0649 | 
